# Measured values published in patent US20240392031A1 (BICARA THERAPEUTICS, published 2024).
# B1: BCA369, anti-hCAIX hIL-12 fusion protein (hIL-12p40 W37A) (other)
# heavy 1: EVRLVESGGGLVKPGGSLRLSCAASGFTFSNYYMSWIRQAPEKRLELVSAINSDGGITYYLDTVKGRFTISRDNAKNSLYLQMNSLRAEDTALFYCARHRSGYFSMDYWGQGTSVTVSS[human IgG1 constant region with changes left out here]GGGGSGGGGSGGGGSIWELKKDVYVVELDAYPDAPGEMVVLTCDTPEEDGITWTLDQSSEVLGSGKTLTIQVKEFGDAGQYTCHKGGEVLSHSLLLLHKKEDGIWSTDILKDQKEPKNKTFLRCEAKNYSGRFTCWWLTTISTDLTFSVKSSRGSSDPQGVTCGAATLSAERVRGDNKEYEYSVECQEDSACPAAEESLPIEVMVDAVHKLKYENYTSSFFIRDIIKPDPPKNLQLKPLKNSRQVEVSWEYPDTWSTPHSYFSLTFCVQVQGKSKREKKDRVFTDKTSATVICRKNASISVRAQDRYYSSSWSEWASVPCS
# heavy 2: EVRLVESGGGLVKPGGSLRLSCAASGFTFSNYYMSWIRQAPEKRLELVSAINSDGGITYYLDTVKGRFTISRDNAKNSLYLQMNSLRAEDTALFYCARHRSGYFSMDYWGQGTSVTVSSASTKGPSVFPLAPSSKSTSGGTAALGCLVKDYFPEPVTVSWNSGALTSGVHTFPAVLQSSGLYSLSSVVTVPSSSLGTQTYICNVNHKPSNTKVDKKV[human IgG1 Fc with changes left out here]GGGGSGGGGSGGGGSRNLPVATPDPGMFPCLHHSQNLLRAVSNMLQKARQTLEFYPCTSEEIDHEDITKDKTSTVEACLPLELTKNESCLNSRETSFITNGSCLASRKTSFMMALCLSSIYEDLKMYQVEFKTMNAKLLMDPKRQIFLDQNMLAVIDELMQALNFNSETVPQKSSLEEPDFYKTKIKLCILLHAFRIRAVTIDRVMSYLNAS
# light: EIVMTQSPATLSVSPGERATLSCKASQNVVSAVAWYQQKPGQSPRLLIYSASNRYTGIPARFSGSGSGTEFTLTISSLQSEDFAAYYCQQYRNYPWTFGGGTKVEIKRTVAAPSVFIFPPSDEQLKSGTASVVCLLNNFYPREAKVQWKVDNALQSGNSQESVTEQDSKDSTYSLSSTLTLSKADYEKHKVYACEVTHQGLSSPVTKSFNRGEC
# B2: BCA374, anti-hCAIX hIL-12 fusion protein (hIL-12p40 W37A, K217A) (other)
# heavy 1: EVRLVESGGGLVKPGGSLRLSCAASGFTFSNYYMSWIRQAPEKRLELVSAINSDGGITYYLDTVKGRFTISRDNAKNSLYLQMNSLRAEDTALFYCARHRSGYFSMDYWGQGTSVTVSS[human IgG1 constant region with changes left out here]GGGGSGGGGSGGGGSIWELKKDVYVVELDAYPDAPGEMVVLTCDTPEEDGITWTLDQSSEVLGSGKTLTIQVKEFGDAGQYTCHKGGEVLSHSLLLLHKKEDGIWSTDILKDQKEPKNKTFLRCEAKNYSGRFTCWWLTTISTDLTFSVKSSRGSSDPQGVTCGAATLSAERVRGDNKEYEYSVECQEDSACPAAEESLPIEVMVDAVHALKYENYTSSFFIRDIIKPDPPKNLQLKPLKNSRQVEVSWEYPDTWSTPHSYFSLTFCVQVQGKSKREKKDRVFTDKTSATVICRKNASISVRAQDRYYSSSWSEWASVPCS
# heavy 2: EVRLVESGGGLVKPGGSLRLSCAASGFTFSNYYMSWIRQAPEKRLELVSAINSDGGITYYLDTVKGRFTISRDNAKNSLYLQMNSLRAEDTALFYCARHRSGYFSMDYWGQGTSVTVSSASTKGPSVFPLAPSSKSTSGGTAALGCLVKDYFPEPVTVSWNSGALTSGVHTFPAVLQSSGLYSLSSVVTVPSSSLGTQTYICNVNHKPSNTKVDKKV[human IgG1 Fc with changes left out here]GGGGSGGGGSGGGGSRNLPVATPDPGMFPCLHHSQNLLRAVSNMLQKARQTLEFYPCTSEEIDHEDITKDKTSTVEACLPLELTKNESCLNSRETSFITNGSCLASRKTSFMMALCLSSIYEDLKMYQVEFKTMNAKLLMDPKRQIFLDQNMLAVIDELMQALNFNSETVPQKSSLEEPDFYKTKIKLCILLHAFRIRAVTIDRVMSYLNAS
# light: B1 light
# B3: BCA370, anti-hCAIX hIL-12 fusion protein (hIL-12p40 F82A) (other)
# heavy 1: EVRLVESGGGLVKPGGSLRLSCAASGFTFSNYYMSWIRQAPEKRLELVSAINSDGGITYYLDTVKGRFTISRDNAKNSLYLQMNSLRAEDTALFYCARHRSGYFSMDYWGQGTSVTVSS[human IgG1 constant region with changes left out here]GGGGSGGGGSGGGGSIWELKKDVYVVELDWYPDAPGEMVVLTCDTPEEDGITWTLDQSSEVLGSGKTLTIQVKEAGDAGQYTCHKGGEVLSHSLLLLHKKEDGIWSTDILKDQKEPKNKTFLRCEAKNYSGRFTCWWLTTISTDLTFSVKSSRGSSDPQGVTCGAATLSAERVRGDNKEYEYSVECQEDSACPAAEESLPIEVMVDAVHKLKYENYTSSFFIRDIIKPDPPKNLQLKPLKNSRQVEVSWEYPDTWSTPHSYFSLTFCVQVQGKSKREKKDRVFTDKTSATVICRKNASISVRAQDRYYSSSWSEWASVPCS
# heavy 2: EVRLVESGGGLVKPGGSLRLSCAASGFTFSNYYMSWIRQAPEKRLELVSAINSDGGITYYLDTVKGRFTISRDNAKNSLYLQMNSLRAEDTALFYCARHRSGYFSMDYWGQGTSVTVSSASTKGPSVFPLAPSSKSTSGGTAALGCLVKDYFPEPVTVSWNSGALTSGVHTFPAVLQSSGLYSLSSVVTVPSSSLGTQTYICNVNHKPSNTKVDKKV[human IgG1 Fc with changes left out here]GGGGSGGGGSGGGGSRNLPVATPDPGMFPCLHHSQNLLRAVSNMLQKARQTLEFYPCTSEEIDHEDITKDKTSTVEACLPLELTKNESCLNSRETSFITNGSCLASRKTSFMMALCLSSIYEDLKMYQVEFKTMNAKLLMDPKRQIFLDQNMLAVIDELMQALNFNSETVPQKSSLEEPDFYKTKIKLCILLHAFRIRAVTIDRVMSYLNAS
# light: B1 light
# B4: BCA332.16, anti-hCAIX hIL-12 fusion protein (hIL-12p40 variant P: K106A, K217A, K219A) (other)
# heavy 1: EVRLVESGGGLVKPGGSLRLSCAASGFTFSNYYMSWIRQAPEKRLELVSAINSDGGITYYLDTVKGRFTISRDNAKNSLYLQMNSLRAEDTALFYCARHRSGYFSMDYWGQGTSVTVSS[human IgG1 constant region with changes left out here]GGGGSGGGGSGGGGSIWELKKDVYVVELDWYPDAPGEMVVLTCDTPEEDGITWTLDQSSEVLGSGKTLTIQVKEFGDAGQYTCHKGGEVLSHSLLLLHAKEDGIWSTDILKDQKEPKNKTFLRCEAKNYSGRFTCWWLTTISTDLTFSVKSSRGSSDPQGVTCGAATLSAERVRGDNKEYEYSVECQEDSACPAAEESLPIEVMVDAVHALAYENYTSSFFIRDIIKPDPPKNLQLKPLKNSRQVEVSWEYPDTWSTPHSYFSLTFCVQVQGKSKREKKDRVFTDKTSATVICRKNASISVRAQDRYYSSSWSEWASVPCS
# heavy 2: EVRLVESGGGLVKPGGSLRLSCAASGFTFSNYYMSWIRQAPEKRLELVSAINSDGGITYYLDTVKGRFTISRDNAKNSLYLQMNSLRAEDTALFYCARHRSGYFSMDYWGQGTSVTVSSASTKGPSVFPLAPSSKSTSGGTAALGCLVKDYFPEPVTVSWNSGALTSGVHTFPAVLQSSGLYSLSSVVTVPSSSLGTQTYICNVNHKPSNTKVDKKV[human IgG1 Fc with changes left out here]GGGGSGGGGSGGGGSRNLPVATPDPGMFPCLHHSQNLLRAVSNMLQKARQTLEFYPCTSEEIDHEDITKDKTSTVEACLPLELTKNESCLNSRETSFITNGSCLASRKTSFMMALCLSSIYEDLKMYQVEFKTMNAKLLMDPKRQIFLDQNMLAVIDELMQALNFNSETVPQKSSLEEPDFYKTKIKLCILLHAFRIRAVTIDRVMSYLNAS
# light: B1 light with R92S
# B5: BCA326.16, anti-hCAIX hIL-12 fusion protein (hIL-12p40 variant J: E81A, F82A) (other)
# heavy 1: EVRLVESGGGLVKPGGSLRLSCAASGFTFSNYYMSWIRQAPEKRLELVSAINSDGGITYYLDTVKGRFTISRDNAKNSLYLQMNSLRAEDTALFYCARHRSGYFSMDYWGQGTSVTVSS[human IgG1 constant region with changes left out here]GGGGSGGGGSGGGGSIWELKKDVYVVELDWYPDAPGEMVVLTCDTPEEDGITWTLDQSSEVLGSGKTLTIQVKAAGDAGQYTCHKGGEVLSHSLLLLHKKEDGIWSTDILKDQKEPKNKTFLRCEAKNYSGRFTCWWLTTISTDLTFSVKSSRGSSDPQGVTCGAATLSAERVRGDNKEYEYSVECQEDSACPAAEESLPIEVMVDAVHKLKYENYTSSFFIRDIIKPDPPKNLQLKPLKNSRQVEVSWEYPDTWSTPHSYFSLTFCVQVQGKSKREKKDRVFTDKTSATVICRKNASISVRAQDRYYSSSWSEWASVPCS
# heavy 2: EVRLVESGGGLVKPGGSLRLSCAASGFTFSNYYMSWIRQAPEKRLELVSAINSDGGITYYLDTVKGRFTISRDNAKNSLYLQMNSLRAEDTALFYCARHRSGYFSMDYWGQGTSVTVSSASTKGPSVFPLAPSSKSTSGGTAALGCLVKDYFPEPVTVSWNSGALTSGVHTFPAVLQSSGLYSLSSVVTVPSSSLGTQTYICNVNHKPSNTKVDKKV[human IgG1 Fc with changes left out here]GGGGSGGGGSGGGGSRNLPVATPDPGMFPCLHHSQNLLRAVSNMLQKARQTLEFYPCTSEEIDHEDITKDKTSTVEACLPLELTKNESCLNSRETSFITNGSCLASRKTSFMMALCLSSIYEDLKMYQVEFKTMNAKLLMDPKRQIFLDQNMLAVIDELMQALNFNSETVPQKSSLEEPDFYKTKIKLCILLHAFRIRAVTIDRVMSYLNAS
# light: B1 light with R92S
# Target: T1, human IL-12 receptor (hIL-12R), heterodimer of hIL-12Rβ1 and hIL-12Rβ2 (human, UniProt P42701 24-662; Q99665 24-862)
# Test: cell-based or functional assay
row,Fold Attenuation (Over Fc-IL-12 Control); HEK-Blue IL-12 reporter assay,Binder
1,8 fold,B1
2,43 fold,B2
3,18 fold,B3

# Target: T1, human IL-12 receptor (hIL-12R), …
# Test: cell-based or functional assay
# Remark: another data set of the same source
row,HEK-IL12 reporter assay Attenuation (summary table),Binder
1,43 fold,B2
2,18 fold,B3

# Target: T1, human IL-12 receptor (hIL-12R), …
# Test: cell-based or functional assay
# Remark: another data set of the same source
HEK IL-12 Reporter Assay (Ratio of EC50),PSTAT (CD8) flow cytometry - percent reduction at 16.9 nM,Binder
141 ratio,–,B4
374 ratio,50.2%,B5

# Substitutions are numbered along the chain they refer to. In names and notes the source's numbering stands.
